Test: Partition coefficient, countercurrent extraction solvent system
Conditions: butanol:sodium-potassiumphosphate buffer M/15 pH 7.2:hexane 1:1:0.1

gardimycin
partition coefficient: 0.8

Source: patent publication US4022884A, “Gardimycin and process for producing same” (Gruppo Lepetit S.p.A., priority 1974, dated 1977)
